Measured values as given in ChEMBL document CHEMBL5606460, “ASAP - DENV-2 NS2B-NS3 protease fluorescence single point” (2024).
Hit rate of the full screen: of about 2,000 compounds, about 110 (5.5%) showed an effect of 50% or more. This is one part of the list.

Molecular target: Genome polyprotein (dengue virus type 2) (UniProt P29990)
[1] = Thailand/16681/1984, Concentration 25.0 uM, Number of replicates 1.0

## Cn1cc(NC(=O)c2ccccc2C(F)(F)F)c(-c2ccc(F)nc2)n1
Thailand/16681/1984, Concentration 49.5 uM, Number of replicates 2.0, Standard deviation 3.6499634215033607 %
  inhibition: -3.01%
Thailand/16681/1984, Concentration 99.01 uM, Number of replicates 2.0, Standard deviation 1.5811035342397435 %
  inhibition: -2.37%
Thailand/16681/1984, Concentration 198.0 uM, Number of replicates 2.0, Standard deviation 0.8634737807980869 %
  inhibition: -2.26%

## Cc1cc(CO)c2cccc(NC(=O)c3ccc(O)cc3)c2n1
Thailand/16681/1984, Concentration 49.95 uM, Number of replicates 2.0, Standard deviation 1.602531076316379 %
  inhibition: 8.29%
Thailand/16681/1984, Concentration 99.9 uM, Number of replicates 2.0, Standard deviation 2.1632817459370886 %
  inhibition: 14.7%

## NC(=O)C1(NC(=O)[C@]2(c3ccc(F)cc3)CCCNC2)CCOCC1
Thailand/16681/1984, Concentration 49.5 uM, Number of replicates 2.0, Standard deviation 9.453822696514678 %
  inhibition: 13.2%
Thailand/16681/1984, Concentration 99.01 uM, Number of replicates 2.0, Standard deviation 0.7804642139567288 %
  inhibition: -6.29%
Thailand/16681/1984, Concentration 198.0 uM, Number of replicates 2.0, Standard deviation 0.1899767510754608 %
  inhibition: -3.96%

## COc1cc2c(cc1NC(=O)C1CCN(c3ccc(C=O)cc3)CC1)oc1ccccc12
[1]
  inhibition: 14.1%

## CCc1cccc(S(=O)(=O)Nc2ccc(Cl)cc2C(=O)NC)c1
Thailand/16681/1984, Concentration 49.5 uM, Number of replicates 2.0, Standard deviation 0.31892086155653854 %
  inhibition: 0.409%
Thailand/16681/1984, Concentration 99.01 uM, Number of replicates 2.0, Standard deviation 0.4824817381530084 %
  inhibition: 0.666%
Thailand/16681/1984, Concentration 198.0 uM, Number of replicates 2.0, Standard deviation 0.7239504320191382 %
  inhibition: 1.73%

## O=Cc1ccc(N2CCC(C(=O)Nc3ccc4ccccc4c3O)CC2)cc1
[1]
  inhibition: 22.9%

## O=Cc1ccc(N2CCC(C(=O)N3CCN(CCOCCO)CC3)CC2)cc1
[1]
  inhibition: 12.7%

## O=Cc1ccc(N2CCC(C(=O)N3CCC(C(F)(F)F)CC3)CC2)cc1
[1]
  inhibition: 14.9%

## COc1cccc(OCCCNC(=O)C2CCN(c3ccc(C=O)cc3)CC2)c1
[1]
  inhibition: 9.09%

## C[C@H]1CN(Cc2ccccc2)CCN1C(=O)C1CCN(c2ccc(C=O)cc2)CC1
[1]
  inhibition: 14.9%

## COc1nccc(-c2nn(C)cc2NC(=O)c2ccccc2C(F)(F)F)c1F
Thailand/16681/1984, Concentration 49.5 uM, Number of replicates 2.0, Standard deviation 2.2857135361205057 %
  inhibition: -3.27%
Thailand/16681/1984, Concentration 99.01 uM, Number of replicates 2.0, Standard deviation 3.896359145180687 %
  inhibition: -1.87%
Thailand/16681/1984, Concentration 198.0 uM, Number of replicates 2.0, Standard deviation 6.149202607028637 %
  inhibition: -0.776%

## N[C@H]1CC[C@H](NC(=O)[C@@H](NC(=O)OCc2ccccc2)c2ccc(OCc3ccccc3)cc2)C1
Thailand/16681/1984, Concentration 49.5 uM, Number of replicates 2.0, Standard deviation 0.9979193615621401 %
  inhibition: -9.06%
Thailand/16681/1984, Concentration 49.5 uM, Number of replicates 2.0, Standard deviation 5.780389191288721 %
  inhibition: -6.13%
Thailand/16681/1984, Concentration 99.01 uM, Number of replicates 2.0, Standard deviation 0.21863424783935215 %
  inhibition: -6.77%
Thailand/16681/1984, Concentration 99.01 uM, Number of replicates 2.0, Standard deviation 4.8738871027899835 %
  inhibition: -4.83%
Thailand/16681/1984, Concentration 198.0 uM, Number of replicates 2.0, Standard deviation 0.20009536646595624 %
  inhibition: 3.56%
Thailand/16681/1984, Concentration 198.0 uM, Number of replicates 2.0, Standard deviation 2.9330264990309507 %
  inhibition: 6.71%

## Cc1sc(NC(=O)C2CCN(c3ccc(C=O)cc3)CC2)nc1-c1ccc(Cl)cc1
[1]
  inhibition: 14.7%

## Cc1cnc(NC(=O)C2CCN(c3ccc(C=O)cc3)CC2)c([N+](=O)[O-])c1
[1]
  inhibition: 14.4%

## Cc1cc(NC(=O)C2CCN(c3ccc(C=O)cc3)CC2)c(Cl)cc1F
[1]
  inhibition: 12.9%

## Cc1c(C2CCN(C(=O)OC(C)(C)C)CC2)cnn1CC(=O)N[C@H]1CCS(=O)(=O)C1
Thailand/16681/1984, Concentration 49.5 uM, Number of replicates 2.0, Standard deviation 2.1490874038550443 %
  inhibition: -2%
Thailand/16681/1984, Concentration 99.01 uM, Number of replicates 2.0, Standard deviation 2.4294495888486636 %
  inhibition: -2.38%
Thailand/16681/1984, Concentration 198.0 uM, Number of replicates 2.0, Standard deviation 2.506735571515394 %
  inhibition: -2.55%

## NCc1cn([C@H]2CCCN(C(=O)c3cccc4cn[nH]c34)C2)nn1
Thailand/16681/1984, Concentration 49.5 uM, Number of replicates 2.0, Standard deviation 0.5240237372409225 %
  inhibition: -1.58%
Thailand/16681/1984, Concentration 99.01 uM, Number of replicates 2.0, Standard deviation 1.5059779963935036 %
  inhibition: -1.12%
Thailand/16681/1984, Concentration 198.0 uM, Number of replicates 2.0, Standard deviation 0.5927394954377506 %
  inhibition: -1.28%

## O=C(Nc1nc(CO)cs1)[C@]1(c2ccc(F)cc2)CCCNC1
Thailand/16681/1984, Concentration 49.5 uM, Number of replicates 2.0, Standard deviation 1.5147159258078087 %
  inhibition: 0.359%
Thailand/16681/1984, Concentration 99.01 uM, Number of replicates 2.0, Standard deviation 0.700183486969057 %
  inhibition: 2.21%
Thailand/16681/1984, Concentration 198.0 uM, Number of replicates 2.0, Standard deviation 0.48828590710198916 %
  inhibition: 2.6%

## Cn1cc2ccc(C(=O)N3CC[C@H](c4c[nH]c5ccccc45)C3)cc2n1
Thailand/16681/1984, Concentration 49.5 uM, Number of replicates 2.0, Standard deviation 1.3492181697145964 %
  inhibition: -0.744%
Thailand/16681/1984, Concentration 99.01 uM, Number of replicates 2.0, Standard deviation 0.35485686617717016 %
  inhibition: 1.18%
Thailand/16681/1984, Concentration 198.0 uM, Number of replicates 2.0, Standard deviation 0.7962509061223633 %
  inhibition: 4.41%

## O=Cc1ccc(N2CCC(C(=O)N[C@@H](CC(=O)N3CCn4c(nnc4C(F)(F)F)C3)Cc3cc(F)c(F)cc3F)CC2)cc1
[1]
  inhibition: -0.377%

## c1ccc2c(CN3CCC(c4cscn4)CC3)c[nH]c2c1
Thailand/16681/1984, Concentration 49.5 uM, Number of replicates 2.0, Standard deviation 0.8952803214953182 %
  inhibition: -4.85%
Thailand/16681/1984, Concentration 99.01 uM, Number of replicates 2.0, Standard deviation 0.9816046536783611 %
  inhibition: -3.3%
Thailand/16681/1984, Concentration 198.0 uM, Number of replicates 2.0, Standard deviation 1.533367781808638 %
  inhibition: -1.56%

## O=Cc1ccc(N2CCC(C(=O)Nc3ccc([N+](=O)[O-])cc3Cl)CC2)cc1
[1]
  inhibition: 23.5%

## Cc1cc(CO)c2cccc(Nc3cncc(C(=O)O)c3)c2n1
Thailand/16681/1984, Concentration 49.95 uM, Number of replicates 2.0, Standard deviation 0.9951639691938919 %
  inhibition: 14%
Thailand/16681/1984, Concentration 99.9 uM, Number of replicates 2.0, Standard deviation 2.420687048309006 %
  inhibition: 24.2%

## O=Cc1ccc(N2CCC(C(=O)NCc3cc(C(F)(F)F)ccc3C(F)(F)F)CC2)cc1
[1]
  inhibition: 1.04%

## Cc1cc(CO)c2cccc(Cc3ccccc3C(=O)NCc3c(C)noc3C)c2n1
Thailand/16681/1984, Concentration 49.95 uM, Number of replicates 2.0, Standard deviation 0.3226747127660098 %
  inhibition: -0.757%
Thailand/16681/1984, Concentration 99.9 uM, Number of replicates 2.0, Standard deviation 0.21847019123152348 %
  inhibition: 0.39%

## COc1cc(CS(=O)(=O)CCC(C)(C)OC)nc(N2CCNCC2)n1
Thailand/16681/1984, Concentration 49.5 uM, Number of replicates 2.0, Standard deviation 0.83675183590521 %
  inhibition: 1.79%
Thailand/16681/1984, Concentration 99.01 uM, Number of replicates 2.0, Standard deviation 0.5045439696213695 %
  inhibition: 1.85%
Thailand/16681/1984, Concentration 198.0 uM, Number of replicates 2.0, Standard deviation 0.3376271923590682 %
  inhibition: 1.15%

## CNC(=O)c1cc(Cl)ccc1NS(=O)(=O)c1cnn(-c2ccccc2)c1
Thailand/16681/1984, Concentration 49.5 uM, Number of replicates 2.0, Standard deviation 1.1925793018567374 %
  inhibition: -3.02%
Thailand/16681/1984, Concentration 99.01 uM, Number of replicates 2.0, Standard deviation 1.756579156322849 %
  inhibition: -7.26%
